From US4988691A (priority 1989, dated 1991)
Where a name gives a salt, the structure may show the parent alone.

Tested on: alpha1 -adrenergic receptors
Settings: 3H-prazosin; table head 1nM (method: 0.5 nM); rat cerebral cortex membranes

SMILES | Displacement activity at α1-adrenergic receptors
Cc1cc(C(=O)O[C@H]2C[C@H]3CC[C@@H](C2)N3C)on1 [Compound 5, 3-methylisoxazole-5-carboxylic acid 3-(endo-8-methyl-8-azabicyclo[3,2,1]octyl) ester hydrochloride] | inactive
Cc1cc(C(=O)O[C@H]2C[C@H]3CC[C@@H](C2)N3C)no1 [Compound 8, 5-methylisoxazole-3-carboxylic acid 3-(endo-8-methyl-8-azabicyclo[3,2,1]octyl) ester hydrochloride] | inactive
